Measurements from PubChem BioAssay AID686978 (National Center for Advancing Translational Sciences (NCATS), 2013).
In all, about 420,000 compounds went through this assay and about 64,000 (15%) were called active. Inconclusive results, whose numbers are uncertain, are shown with a selection of clear calls. Calls follow the shape of the dose curve; as a rule, active = well fitted inhibition curve with a large enough effect; inconclusive = small, poorly fitted or top-dose-only effect; inactive = flat fitted curve, though single readings scatter. Potencies of inconclusive entries are left out as doubtful fits.
Potency is read from the fitted curve at half-maximal effect; tags tell the direction and shape of the fitted curve.

Assay: qHTS for Inhibitors of human tyrosyl-DNA phosphodiesterase 1 (TDP1): qHTS in cells in absence of CPT; also: nearly all actives have a fitted effect of over 55% in size
Details: DT40 Tdp1-/- hTDP1 cells, no CPT, ATP luminescence, 48 h; series mostly up to 46.2 µM
Procedure, shortened: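 No-CPT arm: Tdp1-/-;hTDP1 DT40 cells (400/well) plus compounds, incubated ≥48 hr at 37 °C. Readout CellTiter-Glo luminescence.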
For `O=C(Nc1ccc(O)c2c(=O)cc(-c3cccc(Cl)c3)oc12)c1ccccc1Cl`, the Potency was active: 20.6 µM. In the case of `COc1ccc(CN2CCNC(=O)C2CC(=O)N(C)Cc2nonc2C)c(F)c1` (centres undefined), the Potency is reported as “inactive”. With `Cc1cccc(C(=O)NC(=O)Nc2c(C)cc(C)nc2C)c1` the Potency was inconclusive [inhibitor, single point]. In the case of `CC(C)CN(Cc1c(O)ccc2c(=O)c(-c3ccccc3)coc12)CC(C)C`, the Potency is reported as inconclusive [inhibitor, full curve]. For `N#Cc1ccccc1OCC(=O)Nc1cccc(S(=O)(=O)N2CCCCCC2)c1`, the Potency was active: 20.6 µM. In the case of `CCOc1ccc(Cn2nnc(C(=O)Nc3ccc(OC)cc3OC)c2N)cc1`, the Potency is reported as “inactive”. In the case of `COc1ccccc1NC(=O)CSc1nc2c(oc3ccccc32)c(=O)n1-c1ccccc1F`, the Potency is reported as active: 9.2 µM. In the case of `CCCSc1nc2sc3c(c2c(=O)n1CC)CC(C)(C)OC3`, the Potency is reported as inconclusive [inhibitor, single point]. For `CCc1ccc(N2CC(C(=O)Nc3ccc(S(=O)(=O)N4CCOCC4)cc3)CC2=O)cc1` (centres undefined), the Potency was inconclusive [inhibitor, single point]. With `COc1ccc(NC2=C(Cl)C(=O)N(CCc3ccccc3)C2=O)cc1` the Potency was inconclusive [inhibitor, single point]. In the case of `CCOc1ccc2nc(NC(=S)N(C)C)sc2c1`, the Potency is reported as active: 1.16 µM. With `CCOC(=O)C1CC2=C(CCCC2=O)NC1=O` (centres undefined) the Potency was “inactive”. With `CCOC(=O)C1CCN(c2nc3ccccc3nc2Cl)CC1` the Potency was “inactive”. In the case of `COC(=O)c1sc2nc(N)c(C#N)cc2c1N`, the Potency is reported as inconclusive [inhibitor, single point]. With `COc1ccc(C(=O)N/N=C/C(=O)c2ccccc2)cc1` the Potency was “inactive”. In the case of `N#CC1(c2ccccc2)CCN(S(=O)(=O)c2ccc(OC(F)(F)F)cc2)CC1`, the Potency is reported as active: 14.6 µM. With `O=C(NCc1ccc2c(c1)OCO2)c1n[nH]c(=O)c2ccccc12` the Potency was inconclusive [inhibitor, full curve, poor fit]. In the case of `COC(=O)c1c(-c2cccs2)csc1NC(=O)c1cccnc1`, the Potency is reported as active: 14.6 µM. For `CN1CCN(S(=O)(=O)c2cccc(C(=O)Nc3sc4c(c3C(N)=O)CCCC4)c2)CC1`, the Potency was inconclusive [inhibitor, single point]. In the case of `CCOC(=O)[C@@H]1[C@H]2COc3cc(OC)ccc3[C@H]2N2C(=O)N(c3ccc(OC)cc3)C(=O)[C@]12C`, the Potency is reported as inconclusive [inhibitor, single point]. In the case of `Cc1ncc([N+](=O)[O-])n1CCOC(=O)NC(NCc1ccccc1Cl)C(Cl)(Cl)Cl` (centres undefined), the Potency is reported as inconclusive [inhibitor, single point]. For `O=C(Nc1ccc(F)cc1)c1ccc(CN2CCc3ccccc3C2)cc1`, the Potency was inconclusive [inhibitor, single point]. For `CC(=O)Nc1cccc(NC(=O)CSc2nccn2C2CCCC2)c1`, the Potency was inconclusive [inhibitor, partial curve]. With `COc1ccc(C2/C=C\CN(C(=O)CC(C)(C)C)CC(=O)N2Cc2ccc(F)cc2)cc1` (centres undefined) the Potency was inconclusive [inhibitor, single point]. In the case of `CCC(C)NC(=O)Cn1nc(C(F)(F)F)c2c1CCC2` (centres undefined), the Potency is reported as “inactive”. For `C=CC[C@]12C=C(OC)C(=O)C=C1O[C@@H](c1ccc3c(c1)OCO3)[C@H]2C`, the Potency was “inactive”. For `COc1cc(-c2cnc3c(NC=O)cc(-c4ccsc4)cn23)cc(OC)c1OC`, the Potency was active: 0.164 µM. For `Cc1cc(C)c(NC(=O)C(=O)NCC(c2cccnc2)N2CCN(c3ccccc3F)CC2)c(C)c1` (centres undefined), the Potency was active: 14.6 µM. With `COc1cccc(CNC(=O)CSc2nc(=O)n(Cc3ccncc3)c3c2CCC3)c1` the Potency was “inactive”. In the case of `CCC(C(=O)NC1CCCC1)n1c(-c2ccccn2)nc2ccccc21` (centres undefined), the Potency is reported as active: 8.2 µM. In the case of `Nc1ncnc2c1ncn2CCc1ccccc1`, the Potency is reported as inconclusive [inhibitor, single point]. In the case of `O=C(Cc1ccc(NS(=O)(=O)c2ccc(F)cc2)cc1)NCc1cccnc1`, the Potency is reported as “inactive”. For `CCCCOC(=O)Nc1ccc(C(=O)OCCC)cc1`, the Potency was inconclusive [inhibitor, single point]. For `Cc1ccc(NC(=O)/C(=C\c2ccccc2)NC(=O)c2ccco2)cc1`, the Potency was “inactive”. In the case of `Cc1ccc(CNC(=O)c2cc3c(-c4ccc(Cl)cc4)nn(C)c3s2)o1`, the Potency is reported as inconclusive [inhibitor, single point]. For `CC1CCCCN1CCNC(=O)C1CCN(S(=O)(=O)c2cccc3cccnc23)CC1` (centres undefined), the Potency was inconclusive [inhibitor, full curve]. For `O=C(Cc1ccc(Br)cc1)Nc1cccc(Cl)c1`, the Potency was inconclusive [inhibitor, single point]. In the case of `COc1cccc(C(=O)NNS(=O)(=O)c2ccc(F)cc2)c1`, the Potency is reported as “inactive”. With `CCOc1cc(S(=O)(=O)N2CCN(Cc3ccccc3)CC2)ccc1Br` the Potency was inconclusive [inhibitor, partial curve]. In the case of `O=C(c1cc(Br)ccc1O)N(Cc1ccco1)Cc1cccs1`, the Potency is reported as inconclusive [inhibitor, single point]. With `Cc1ccc(OCc2nc(C#N)c(NCCc3ccccc3)o2)cc1` the Potency was inconclusive [inhibitor, single point]. With `Cc1ccccc1NC(=O)CSC1=Nc2ccccc2C2=NC(Cc3ccccc3)C(=O)N12` (centres undefined) the Potency was inconclusive [inhibitor, single point]. For `CC1(NC(=O)Cc2c(F)cccc2Cl)CCS(=O)(=O)C1` (centres undefined), the Potency was “inactive”. For `COC(=O)c1ccc2c(=O)n3nc(Nc4cc(OC)ccc4OC)sc3nc2c1`, the Potency was “inactive”. For `C=CCN(c1ccc(C(=O)OC)cc1)S(=O)(=O)c1ccccc1`, the Potency was “inactive”. In the case of `COc1cnc(-c2ccccc2)[nH]c1=O`, the Potency is reported as “inactive”. In the case of `COc1ccc(N2CCN(C(=O)CCCn3c(=O)[nH]c4cc(Cl)ccc4c3=O)CC2)cc1`, the Potency is reported as inconclusive [inhibitor, single point]. In the case of `COC(=O)c1ccc(COC(=O)CNC(=O)c2cccs2)cc1`, the Potency is reported as “inactive”. With `NC(=O)C1CCN(C(=O)CC2C(=O)NCCN2Cc2cccc(Oc3ccccc3)c2)CC1` (centres undefined) the Potency was “inactive”.
